Experimental data as given in the antibiotic and cytotoxicity screens of Wong et al. (2023).
The other results are listed elsewhere or left out.

test system: S. aureus RN4220; test: growth inhibition call (relative growth <= 0.2); conditions: 50 µM

Compound | growth inhibition call
C[C@@H]1CN([C@@H](C)CO)C(=O)c2cc(NS(=O)(=O)c3cn(C)cn3)ccc2O[C@@H](C)CCCCO[C@H]1CN(C)CC1CC1 | inactive
O=C1C=CC(=O)N1 | active
C[C@@H]1CN([C@H](C)CO)C(=O)c2cc(NC(=O)C3CC3)ccc2O[C@@H]1CN(C)S(=O)(=O)c1cccs1 | inactive
C=CC[C@H](CC(=O)N(CCO)Cc1ccccc1)C(=O)N[C@H](COC(=O)[C@H](CC=C)CC(=O)OC(C)(C)C)Cc1c[nH]c2ccccc12 | inactive
COc1ccc(CN(C)C[C@@H]2Oc3ccc(NC(=O)Nc4cccc5ccccc45)cc3CC(=O)N([C@@H](C)CO)C[C@@H]2C)cc1 | inactive
Cc1noc(C)c1NC(=O)Nc1ccc2c(c1)C(=O)N([C@@H](C)CO)C[C@@H](C)[C@@H](CN(C)C(=O)Nc1ccccc1)OCCCC[C@H](C)O2 | inactive
O=C(O)C1CSCN1 (centres undefined) | inactive
C[C@H]1CCCCO[C@@H](CN(C)CC2CCCCC2)[C@@H](C)CN([C@@H](C)CO)C(=O)c2cc(NC(=O)Nc3ccccc3)ccc2O1 | inactive
COc1ccc(C#Cc2cnc3c(c2)C(=O)N([C@@H](C)CO)C[C@@H](C)[C@@H](CN(C)C(=O)CC2CC2)O3)cc1 | inactive
C[C@H](CO)N1C[C@H](C)[C@H](CN(C)C(=O)Nc2ccc3c(c2)OCO3)Oc2ccc(NS(C)(=O)=O)cc2C1=O | inactive
C[C@H](CO)N1C[C@H](C)[C@H](CN(C)Cc2ccc(Cl)c(Cl)c2)Oc2c(NC(=O)C3CCCCC3)cccc2C1=O | inactive
C[C@@H]1CN([C@H](C)CO)C(=O)c2cc(NC(=O)CCCCCC(=O)Nc3ccccc3N)ccc2O[C@@H]1CN(C)Cc1ccc(C(F)(F)F)cc1 | inactive
N[C@@H](C(=O)O)[C@@H](O)[C@H](O)[C@H](O)CO | inactive
O=C(C[C@@H]1C=C[C@@H](NC(=O)c2ccc(F)cc2)[C@H](CO)O1)NCc1ccncn1 | inactive
O=C(C[C@@H]1CC[C@@H](NS(=O)(=O)c2ccccc2F)[C@H](CO)O1)NCCCN1CCOCC1 | inactive
C[C@@H]1CN([C@@H](C)CO)C(=O)c2cc(NC(=O)NC3CCCCC3)ccc2O[C@H]1CN(C)Cc1ccc(C(=O)Nc2ccccc2N)cc1 | inactive
C[C@H]1CN([C@@H](C)CO)C(=O)c2cc(NS(=O)(=O)c3ccc(F)cc3)ccc2O[C@H]1CN(C)Cc1ccc(Cl)c(Cl)c1 | inactive
C[C@@H]1CN([C@@H](C)CO)C(=O)CCCn2nncc2CO[C@H]1CN(C)C(=O)c1cc(-c2ccccc2)on1 | inactive
O=c1[nH]c(=O)n([C@@H]2O[C@H](CO)[C@@H](O)[C@H]2O)cc1Br | inactive
Cc1noc(C)c1NC(=O)N(C)C[C@H]1OCCCC[C@@H](C)Oc2ccc(NC(=O)Cc3ccccc3)cc2C(=O)N([C@H](C)CO)C[C@@H]1C | inactive
COc1ccc(S(=O)(=O)N2C[C@H](O)COC[C@H]3O[C@H](CC(=O)NCCCN(C)C)CC[C@@H]32)cc1 | inactive
CC(C)NC(=O)Nc1ccc2c(c1)C(=O)N([C@@H](C)CO)C[C@@H](C)[C@@H](CN(C)Cc1ccc(-c3ccccc3)cc1)O2 | inactive
O=C(C[C@@H]1CC[C@@H]2[C@H](COC[C@@H](O)CN2C(=O)Nc2cccc(Cl)c2)O1)NCc1ccccc1F | active
COc1cccc(NC(=O)N2C[C@@H](O)COC[C@H]3O[C@H](CC(=O)NC4Cc5ccccc5C4)CC[C@@H]32)c1 | inactive
C[C@@H]1CN([C@@H](C)CO)C(=O)c2cc(N(C)C)ccc2O[C@@H]1CN(C)S(=O)(=O)c1ccc(Cl)cc1 | inactive
CC(=O)N[C@H]1[C@H](O[C@H]2CC[C@]3(C)[C@H]4CC=C5[C@@H]6CC(C)(C)CC[C@]6(C(=O)O[C@H]6OC[C@@H](O)[C@@H](O)[C@@H]6O)[C@@H](O)C[C@@]5(C)[C@]4(C)CC[C@H]3C2(C)C)O[C@H](CO[C@H]2OC[C@@H](O)[C@@H](O[C@H]3OC[C@@H](O)[C@@H](O)[C@@H]3O)[C@@H]2O)[C@@H](O[C@@H]2O[C@@H](C)[C@H](O)[C@@H](O)[C@H]2O[C@@H]2O[C@@H](C)[C@H](O)[C@@H](O)[C@H]2O)[C@@H]1O | inactive
COc1ccc(CN(C)C[C@H]2OCCCC[C@@H](C)Oc3ccc(NS(=O)(=O)c4ccc(OC)cc4)cc3C(=O)N([C@H](C)CO)C[C@@H]2C)cc1 | inactive
C[C@H]1CN([C@@H](C)CO)C(=O)c2cccc(NS(=O)(=O)c3ccc(F)cc3)c2O[C@H]1CN(C)Cc1ccncc1 | inactive
Cc1noc(C)c1NC(=O)Nc1ccc2c(c1)CC(=O)N([C@@H](C)CO)C[C@@H](C)[C@@H](CN(C)C(=O)Nc1cccc3ccccc13)O2 | inactive
